To fix the notation:
B1: chr16:87831719:87831834:-|3pUTR|ENSG00000103257|msi1_unk|total|mutant (ssRNA)
RNA: GGGAGUUCUACAGUCCGACGAUCCCUGCGUUUGGAGGCCCCUGGGCUCUCACCCAGUCCCCACCCGCCUGCAGAGAGGGAACCCGGGCACCCCUUGUUUCUGUUGUUCCCGUGAAUUUUUUUCGCUAUGGGAGGCAGCCGAGGCAACAGAGGAUUGAGCAUCA
B2: chr3:36528868:36528981:+|CDS|ENSG00000144681|unk|FALSE|unique (ssRNA)
RNA: GGGAGUUCUACAGUCCGACGAUCAGAAUUGGCUUCUUUCCAGCCAACUUUGUUCAGAGACUACAACAAAAUGAGAAGAUUUUUAGAUGUGUUAGAACCUUCAUUGGGUGUAAGGAACAGGGGCAGAUAACACUGAAAGAGAAUCAACAGAGGAUUGAGCAUCA
B3: ENSG00000070961:be:win_5101|3pUTR|ENSG00000070961|bound_else_gene|NA|bound_elsewhere_windowed (ssRNA)
RNA: GGGAGUUCUACAGUCCGACGAUCAUGACCACCAUUGUCUUUGAUACAUUUAUUUUAAUUCUUAAGUGGCCAAAUAACAGAUUAGGUAAAAUGAGAUUACAUGAAAAGGUUCUAAAAUGAUAUAUUUAGAUGCAAUAAUUAACCCAACAGAGGAUUGAGCAUCA
B4: chr6:38153770:38153871:+|3pUTR|ENSG00000156639|msi1|FALSE|unique (ssRNA)
RNA: GGGAGUUCUACAGUCCGACGAUCGGUGGACAGGAUCAGGAUUCCCUUGAAAGCCCAGGCAGGGUGAGCAGUCCCAGUGGUCCUAGUGCCGCAUCAGAUCCAGGUGGGUGAGGGCAGGAGGCCCCUGCGGAGGCAGCGUGGAUCCAACAGAGGAUUGAGCAUCA
B5: chr19:45890022:45890622:-|three_prime_utr|ENSG00000176182|control|control|control (ssRNA)
RNA: GGGAGUUCUACAGUCCGACGAUCUCUCCCCAGCUUGGCGCAGUCGAGGGGGGCGAUGCUCUCUGCCCAUCCCAGCUGCACCCUAGCUCCCUGCUCCAGGGAUGUGAGCACCCACUCCCUGUGCUAGUUAGUGCCUGAUUCUCUCAACAGAGGAUUGAGCAUCA
B6: chr9:128390415:128390516:+|3pUTR|ENSG00000167118|msi1|FALSE|unique (ssRNA)
RNA: GGGAGUUCUACAGUCCGACGAUCCUUACAGCUCAUUCUGCUGGGGGUAGAGAUGAGGGGAGGGAGUAAGUUAAACCUUGGACUAGCAAGUAGAAGCCUGGGGGGAUGCGUGUGCCUCAGUUUCCUCCUCCACAACUGAAUAUACAACAGAGGAUUGAGCAUCA
B7: chr18:54155150:54155251:-|3pUTR|ENSG00000134046|unk|total|mutant (ssRNA)
RNA: GGGAGUUCUACAGUCCGACGAUCUUUCCACUGGCUUUUGCCUGUAAGAAAAAAAAUGUACCCGAGCACACCGAGCUUUUUAACCGCACUAACCAAUGCCUUUUCCGAUGUAUUUUUGAUGUAUAUAUCUAUUAUUCAAAAAAUCAACAGAGGAUUGAGCAUCA
B8: chr11:63758435:63758536:+|3pUTR|ENSG00000133318|msi1|total|mutant (ssRNA)
RNA: GGGAGUUCUACAGUCCGACGAUCAGAAAGAAUCAAAUUCACCGGAUAAGUCAAUACCUUAAUGGUGGCCGAGCCUUUACCUGCCGCUUGAAAGGGGAAAGAUUGGAGGUAAGAGAGAAAAUGAAAGAACACCUCUGGGUCCUUCAACAGAGGAUUGAGCAUCA
B9: chr11:74333230:74333331:-|3pUTR|ENSG00000165434|msi1|FALSE|unique (ssRNA)
RNA: GGGAGUUCUACAGUCCGACGAUCUGAGUCUUUUAUUGAAGGGUUCAAAGUAAGAAAUACUAUGCCAUAGUGUUCUCCAUCUCUAGUGAAGACAGAACCAGAGGGAAUAAGGAUCUUUUUUUUAAAGACAGCAUGGAAAGUUUACAACAGAGGAUUGAGCAUCA
B10: chr1:51271806:51271833:+|3pUTR|ENSG00000123091|msi1_unk|total|mutant (ssRNA)
RNA: GGGAGUUCUACAGUCCGACGAUCCAUUUGGGUCAAGGUUUUAUUAAAAGCUACAUUUUAUAACACUGGCACACACAAAAAAGCCGUUUUAAGCUUGUUUGCACAGUUCUUUUUUUCCAUUGGAAAUGGAAUUCAUUGCCUCCGCAACAGAGGAUUGAGCAUCA
B11: chr1:205715917:205716022:-|3pUTR|ENSG00000069275|msi1_unk|FALSE|overlapping (ssRNA)
RNA: GGGAGUUCUACAGUCCGACGAUCGAGACAGGCUCUGAAUAACCUUUGUUUUCUCCACUUUUUAUUGAUGAUUUAAAACACUCUAGUCUUCCCCUCAAAUCAUGCAUGCAAAUAGGAGGACAGUGGUGGUGACUCAACUGGAUACAACAGAGGAUUGAGCAUCA
B12: chr8:23843870:23844003:-|3pUTR|ENSG00000159167|msi1|FALSE|unique (ssRNA)
RNA: GGGAGUUCUACAGUCCGACGAUCAAUUCCAGAGGACUCUGCUUAAACAAAGCAGUAUAUAAUAACUUUAUUGCAUAUAGAUUUAGUUUUGUAACUUAGCUUUAUUUUUCUUUUCCUGGGAAUGGAAUAACUAUCUCACUUCCACAACAGAGGAUUGAGCAUCA
B13: ENSG00000182541:stop:overlap|stop_codon|ENSG00000182541|stop_codon|NA|stop_codon (ssRNA)
RNA: GGGAGUUCUACAGUCCGACGAUCUGGAGGAGUUGGACCACACUGUGAGCAUGCAGUACGGCCUGACCCGGGACUCACCUCCCUAGCCCUGGCCCAGCCCCCUGCAGGGGGGUGUUCUACAGCCAGCAUUGCCCCUCUGUGCCCCAACAGAGGAUUGAGCAUCA
B14: chr8:41263181:41263319:-|3pUTR|ENSG00000104332|msi1|total|mutant (ssRNA)
RNA: GGGAGUUCUACAGUCCGACGAUCCUUAAGUGAUUUGCCUGUAAUUUUGGAUGAUUAAAAAAUGUGUAUAUAUAUCCGCUAAUCCGAAAUAUUCUACUUCUCUGUUGUCAAACUGAAAUUCAGAGCAAGUUCCUGAGUGCGUGGCAACAGAGGAUUGAGCAUCA
B15: ENSG00000120802:stop:overlap|stop_codon|ENSG00000120802|stop_codon|NA|stop_codon (ssRNA)
RNA: GGGAGUUCUACAGUCCGACGAUCGUGGAACAUUAUUUGGAGGAGAAGUAUGCAAAGUAAUUAAAAAGCGUGGAAAUAAACACUAGUAAAAUUAAGGACAAAAAGACAUCUAUCUUAUCUUUCAGGUACUUUAUGCCAACAUUUCAACAGAGGAUUGAGCAUCA
B16: chr4:175634378:175634624:-|3pUTR|ENSG00000150625|msi1|FALSE|unique (ssRNA)
RNA: GGGAGUUCUACAGUCCGACGAUCUUUCUUAUGUUUUGAAAAGAAAAUAGCUUUUUAUACUUUUUAGUUUUGAUUUCGGUAACUAGUUUAACUACAGGUAACCUUCAAAGGGACCAUUGUACAUUAUGAACAAUAGAUAGAGAUCAACAGAGGAUUGAGCAUCA
B17: chr6:15520333:15520434:+|3pUTR|ENSG00000008083|unk|FALSE|unique (ssRNA)
RNA: GGGAGUUCUACAGUCCGACGAUCCUUGCUGUAGGAUUCAAGCUGUCUUUGCACUAGCUCUAAAGAAGAUUUUCUUCUGGUUUUAGAGAACUAAUUUUGUUUUAGCAUUAAACUGUUGAACUUUUUUUUGUACUUAGAAAACCUCAACAGAGGAUUGAGCAUCA
B18: chr14:92688591:92688692:+|3pUTR|ENSG00000100599|msi1|FALSE|unique (ssRNA)
RNA: GGGAGUUCUACAGUCCGACGAUCUCCCCAUGAGUCCCCCACACCCACCCCAUCCUCGGUCUUUGCAAAGAAGGGCCCGAGCUUAGUUUCCCCAGGACUGGCCUAGGAAGGAGCACCGGCCACAGCUGCUCCCCGUGCCACUCACAACAGAGGAUUGAGCAUCA
B19: ENSG00000175727:stop:overlap|stop_codon|ENSG00000175727|stop_codon|NA|stop_codon (ssRNA)
RNA: GGGAGUUCUACAGUCCGACGAUCAGCUGCCAGAGCAGGCGUCCAAGGCUGUCACCAGGAUUGGCAAGAGAUUGGGAGAGUCCUAGCUGCUUAGCUGGCAUGUGGCCGCAUGAGAUGCCAGGAGACCCUUCCCUGCCCAUGGAGCAACAGAGGAUUGAGCAUCA
B20: chrX:120258281:120258382:+|3pUTR|ENSG00000177485|msi1|total|mutant (ssRNA)
RNA: GGGAGUUCUACAGUCCGACGAUCUGUACAAUCUUCCCUGUCAUGACUUUAAGUUCUACUUUUCAUUAACCAUGGCCUGAUAUCCGUUCUCCGAGCUUCUUGUGGCAAAAAUAAAAUGAUUUAAUUCUGAUGUUUGAGUGCGUGCAACAGAGGAUUGAGCAUCA
B21: chr2:160273923:160274028:-|3pUTR|ENSG00000153250|unk|FALSE|unique (ssRNA)
RNA: GGGAGUUCUACAGUCCGACGAUCGGGCUUUUAAAAGGUAGUCAAUAAAAGUUGCUGAAAUUUUGGCUUUUUUAAAUAUGUAGUAGGUGUUUUUAAUGAUUUUUCACAUAAUGUGUAAGGUAGUGAAAUGCAAGAAGGGAAAAACAACAGAGGAUUGAGCAUCA
B22: chr7:139306712:139306813:+|3pUTR|ENSG00000157741|msi1|total|mutant (ssRNA)
RNA: GGGAGUUCUACAGUCCGACGAUCAUCUGGGGCUUGCCCUUGGAUUUCACUUGUUAAACACCCUCAAACUUAAAAGAAGAAAACCGAUCUCCAGCUGGUGAAAAUUUUGUGCCCCAAAUAAUAUAUUAAUCCAAGUCUACCAAGCAACAGAGGAUUGAGCAUCA

The other results are listed elsewhere or left out.

This test addresses T1, UNK ZnF1-6 (called full-length) (human, UniProt Q9C0B0 30-357).
T1 sequence: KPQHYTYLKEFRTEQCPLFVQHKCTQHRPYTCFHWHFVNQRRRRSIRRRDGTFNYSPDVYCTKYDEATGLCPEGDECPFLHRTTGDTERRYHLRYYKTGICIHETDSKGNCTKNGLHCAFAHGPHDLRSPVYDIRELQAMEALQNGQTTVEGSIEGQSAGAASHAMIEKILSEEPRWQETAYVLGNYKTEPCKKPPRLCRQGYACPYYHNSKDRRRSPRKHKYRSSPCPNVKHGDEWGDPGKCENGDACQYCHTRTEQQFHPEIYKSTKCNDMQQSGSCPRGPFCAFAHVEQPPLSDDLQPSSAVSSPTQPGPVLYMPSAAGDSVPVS
In words: nsRBNS (natural sequence RNA bind-n-seq); RBNS binding buffer (assumed for nsRBNS): 25 mM Tris pH 7.5, 150 mM KCl, 3 mM MgCl2, 0.01% Triton X-100, 500 ug/ml BSA, 20 U/ml SUPERase-In, 4 C; UNK is unkempt and MSI1 is Musashi-1; names of the RNAs are library labels; protein concentration not given here; high values mean tight binding.
Regarding B1, the binding signal was determined as 0.698 enrichment R. As for B2, the binding signal is 0.53 enrichment R.

On to B3, for which the binding signal worked out at 3.73 enrichment R. The same measure for B4: 0.932 enrichment R. The same measure for B5: 0.708 enrichment R.

With B6, the binding signal amounted to 1.14 enrichment R.

B7 returned a binding signal of 0.82 enrichment R. The same measure for B8: 0.565 enrichment R. The molecule B9 returned a binding signal of 0.392 enrichment R.

B10 had a binding signal of 0.464 enrichment R.

B11: the binding signal worked out at 0.807 enrichment R. The same measure for B12: 13.9 enrichment R; for B13: 0.881 enrichment R. In turn, B14 gave a binding signal of 0.347 enrichment R. B15 returned a binding signal of 1.07 enrichment R. The same measure for B16: 9.58 enrichment R. B17 returned a binding signal of 3.46 enrichment R. The same measure for B18: 0.976 enrichment R; for B19: 1 enrichment R; for B20: 0.458 enrichment R. B21 had a binding signal of 3.73 enrichment R. Molecule B22 showed a binding signal of 0.819 enrichment R.

These data come from PMC12136788.
